Results taken from the supplement of paper PMC4166925.
± gives the standard deviation of the averaged measurements. In all, about 33,000 sequences were measured (“E-score (dimensionless, -0.5 to 0.5)”: median about -0.046, highest 2% from about 0.36 on). Some of the results follow.

These sequences were tested on T1, SpTbr T-box DNA-binding domain (GST fusion) (assay: PBM E-score of 8-mer (E-score (dimensionless, -0.5 to 0.5)); Tbr is Tbrain of the sea star Patiria miniata (Pm) or the sea urchin Strongylocentrotus purpuratus (Sp); higher = stronger binding preference; most listed sequences are background and not binding sites). Settings: the construct has about 5 more residues each side.
T1 sequence: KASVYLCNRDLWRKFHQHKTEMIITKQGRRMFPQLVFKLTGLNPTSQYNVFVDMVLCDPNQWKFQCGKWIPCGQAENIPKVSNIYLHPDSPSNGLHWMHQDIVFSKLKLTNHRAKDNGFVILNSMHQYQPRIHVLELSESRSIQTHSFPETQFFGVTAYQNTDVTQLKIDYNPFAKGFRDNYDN
Outline: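 Expression of GST-fused Tbr T-box DNA-binding domains, each holding the full T-box plus roughly five flanking residues, was carried out in BL21 E. coli at 20 °C, with purification by glutathione affinity chromatography. Universal Agilent arrays made double-stranded by primer extension were incubated with the protein at 200 nM in PBS (pH 7.5), then scanned and quantified. All ungapped 8-mers were scored from probe intensities, and each received an enrichment E-score from the Universal PBM Analysis Suite, averaged over duplicate arrays.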

| Sequence | PBM E-score of 8-mer |
| --- | --- |
| CAGCAAAG | -0.169 ± 0.02 |
| ACGCTGCC | 0.0634 ± 0.0072 |
| AAACAATA | 0.0101 ± 0.019 |
| AGTCTCTC | -0.105 ± 0.029 |
| GTCTCGAA | -0.133 ± 0.032 |
| CCTAAGCC | -0.179 ± 0.099 |
| CCCGAACC | -0.148 ± 0.026 |
| CAAACCAG | -0.188 ± 0.026 |
| CCGGTGCG | 0.142 ± 0.052 |
| CAGTGGTC | -0.126 ± 0.069 |
| GGTCCTGA | -0.164 ± 0.037 |
| GGTAACAC | 0.435 ± 0.0032 |
| CCTGGTAG | -0.198 ± 0.016 |
| CCTTATAC | -0.12 ± 0.031 |
| CAGTCACG | 0.169 ± 0.03 |
| CACACGCA | 0.336 ± 0.019 |
| CACACCGG | 0.175 ± 0.059 |
| AAATATTT | -0.0371 ± 0.088 |
| CTGCTGGC | 0.00894 ± 0.062 |
| ACCGTCCG | -0.0723 ± 0.023 |
| AATTTTCA | -0.0285 ± 0.04 |
| GACACTCA | 0.306 ± 0.024 |
| CCACTCTA | -0.0297 ± 0.03 |
| ACTCCACT | -0.0495 ± 0.03 |
| CTGCCAGA | -0.12 ± 0.09 |

| Sequence | PBM E-score of 8-mer |
| --- | --- |
| ACAGCTTG | 0.066 ± 0.049 |
| TAATGCGA | 0.0911 ± 0.011 |
| CTTTCACC | 0.0179 ± 0.03 |
| ATATACCG | -0.0559 ± 0.021 |
| CGCAGCTA | 0.0892 ± 0.037 |
| AGTACACC | 0.0392 ± 0.046 |
| TCCTACGA | -0.0908 ± 0.04 |
| TTCCCGAA | -0.122 ± 0.0038 |
| AAGCTCTC | -0.0414 ± 0.0074 |
| AGTGGGGA | 0.212 ± 0.025 |
| ATATTTTG | -0.077 ± 0.034 |
| ACTGTGTA | 0.0693 ± 0.0096 |
| AGTTACTC | 0.0155 ± 0.023 |
| ACGCTATA | -0.013 ± 0.012 |
| ATATATAA | -0.0111 ± 0.082 |
| AAATTGAC | 0.118 ± 0.026 |
| CCTTTTAG | 0.0506 ± 0.044 |
| CCCGTATA | 0.0364 ± 0.069 |
| ATGTCTCA | -0.0324 ± 0.021 |
| ATGCGAGC | 0.0862 ± 0.026 |
| ACTCTGCT | 0.0159 ± 0.0053 |
| CCACACTC | 0.374 ± 0.015 |
| GCACGTAC | 0.203 ± 0.0061 |
| ACACTTTC | 0.402 ± 0.027 |
| ATACAAAA | -0.141 ± 0.011 |

| Sequence | PBM E-score of 8-mer |
| --- | --- |
| GCTGTGTA | -0.0634 ± 0.0096 |
| CTCTAAGC | 0.0354 ± 0.02 |
| ACAAAGAC | -0.0872 ± 0.0088 |
| CATAGGGA | -0.0928 ± 0.051 |
| CCCCCTCA | -0.05 ± 0.015 |
| CCGAATAG | -0.0447 ± 0.023 |
| CATCAGTC | -0.185 ± 0.051 |
| ACCTAGGC | 0.0633 ± 0.063 |
| ACGCAGTG | 0.0522 ± 0.0037 |
| ACCCCAAC | 0.1502 ± 0.00033 |
| ACGTGGAT | -0.0439 ± 0.063 |
| ACGGTACC | -0.0547 ± 0.055 |
| ATGTACAA | -0.233 ± 0.066 |
| ACAATATA | 0.178 ± 0.0078 |
| CTATGCAA | -0.0745 ± 0.007 |
| CTCCAGTA | -0.201 ± 0.032 |
| CGCTCCTC | 0.126 ± 0.0045 |
| TAACCAGA | -0.055 ± 0.015 |
| ACTGCCAT | -0.0515 ± 0.043 |
| CGTTCCGA | -0.0562 ± 0.0032 |
| ACCCTACG | 0.015 ± 0.025 |
| AGTCATAC | -0.0559 ± 0.00085 |
| ACCGGGAT | -0.0571 ± 0.0096 |
| GCACATCC | 0.137 ± 0.0032 |
| GTCGCAAA | 0.0958 ± 0.038 |

| Sequence | PBM E-score of 8-mer |
| --- | --- |
| ATCCTCTC | -0.0284 ± 0.025 |
| GGGAGGCA | -0.156 ± 0.057 |
| ACAAAGAT | 0.0358 ± 0.005 |
| AGGCTGTA | -0.0947 ± 0.068 |
| CGTACCCC | -0.144 ± 0.057 |
| ACATTATC | -0.00408 ± 0.066 |
| AATTCCTA | -0.301 ± 0.025 |
| CTAGGCAG | -0.154 ± 0.0063 |
| CCACAACA | 0.234 ± 0.015 |
| ACACCGGT | 0.246 ± 0.055 |
| ACATGGAA | -0.0968 ± 0.046 |
| GAGTCACA | 0.295 ± 0.022 |
| CGACCAGC | 0.0453 ± 0.1 |
| AGTCTTAA | -0.229 ± 0.087 |
| CCATAACA | -0.0336 ± 0.029 |
| ATTTCTAA | -0.0565 ± 0.021 |
| AGCGCGAC | 0.253 ± 0.026 |
| CCCAGAAC | -0.114 ± 0.022 |
| ATTGGGTC | -0.0691 ± 0.04 |
| ACCGCTCG | -0.107 ± 0.044 |
| CTAGCTAA | 0.041 ± 0.025 |
| GTTGAGTA | -0.178 ± 0.034 |
| AATCCTAC | -0.307 ± 0.011 |
| CATCAAGC | 0.0303 ± 0.0029 |
| AGTCCAGC | -0.237 ± 0.042 |

| Sequence | PBM E-score of 8-mer |
| --- | --- |
| ATTCGGCA | -0.00275 ± 0.039 |
| CGATTCCA | -0.0469 ± 0.074 |
| AACATTCC | -0.147 ± 0.026 |
| AACCTTTG | -0.131 ± 0.041 |
| GGCCGCCC | -0.0386 ± 0.049 |
| GGTTAACC | -0.254 ± 0.1 |
| AAGCGTCA | 0.357 ± 0.0055 |
| ATGAAACC | -0.124 ± 0.0061 |
| CGAGGTTC | -0.0319 ± 0.086 |
| AGGTTACC | -0.0452 ± 0.017 |
| CGGAGTTC | -0.221 ± 0.026 |
| AATTGTGA | 0.313 ± 0.033 |
| AGTCCCAA | -0.336 ± 0.029 |
| TGTGAGAA | 0.4336 ± 0.0026 |
| TCCACCCA | -0.229 ± 0.026 |
| GAGAGTCA | -0.0956 ± 0.025 |
| ACGGGATC | -0.0828 ± 0.015 |
| TAAGTCTA | -0.0674 ± 0.11 |
| GCACTGAA | 0.119 ± 0.057 |
| ATCAGCTC | -0.229 ± 0.056 |
| ATGTAGTA | -0.225 ± 0.094 |
| CGGCCCCC | -0.229 ± 0.006 |
| TGTTGAAA | 0.245 ± 0.068 |
| CTTTAGGA | -0.251 ± 0.12 |
| CTAACCCA | 0.123 ± 0.062 |

| Sequence | PBM E-score of 8-mer |
| --- | --- |
| GGGATTTA | -0.306 ± 0.058 |
| AAGCTGTG | 0.2503 ± 0.0023 |
| ATGAGCTA | -0.276 ± 0.025 |
| ACCATCAT | -0.259 ± 0.11 |
| GTTAAATA | 0.1 ± 0.038 |
| CAGCACGA | 0.14 ± 0.039 |
| GAACGGCA | -0.067 ± 0.0073 |
| GCCGCTAC | 0.0759 ± 0.0049 |
| AGTATGTG | 0.119 ± 0.04 |
| CACGTAAC | 0.0244 ± 0.006 |
| GAACAAAA | -0.0265 ± 0.017 |
| TCTTTGAA | -0.0683 ± 0.06 |
| CACTATCA | 0.314 ± 0.0061 |
| ATTTCTAG | -0.155 ± 0.0062 |
| ACCCAGGA | -0.231 ± 0.048 |
| CCCACATA | -0.066 ± 0.045 |
| CAGTTCAA | -0.245 ± 0.077 |
| AACCAAAA | -0.103 ± 0.062 |
| CGCTCCGC | -0.0832 ± 0.027 |
| CCAGCACA | 0.00791 ± 0.021 |
| TAGGCTAA | -0.227 ± 0.023 |
| GTAGTGAA | 0.117 ± 0.025 |
| CACGCGAA | 0.258 ± 0.0049 |
| CACAAGTG | 0.38 ± 0.016 |
| AATCTGCA | 0.0571 ± 0.0002 |

| Sequence | PBM E-score of 8-mer |
| --- | --- |
| ATCCTTTA | -0.0826 ± 0.0073 |
| ATTTATGA | -0.133 ± 0.026 |
| ACGGTTAA | 0.00031 ± 0.0088 |
| ATGATCGG | -0.241 ± 0.066 |
| GTGTATGA | -0.0691 ± 0.0075 |
| AGAGGTAT | -0.118 ± 0.034 |
| AAATTATC | -0.0228 ± 0.092 |
| CGTTTGAC | 0.195 ± 0.0035 |
| GACGTAAC | -0.0742 ± 0.014 |
| GTGTAGGA | 0.164 ± 0.047 |
| AGATTGAC | 0.0858 ± 0.031 |
| ACAGGCGC | 0.168 ± 0.1 |
| AGCAGAAG | -0.0929 ± 0.013 |
| GAAGGATA | -0.0822 ± 0.079 |
| GAGCGCAA | -0.0387 ± 0.044 |
| TCGTATCA | 0.129 ± 0.031 |
| GCGGGTTA | 0.0769 ± 0.054 |
| CGAGTCAC | 0.0629 ± 0.097 |
| CCGCGAGA | 0.224 ± 0.037 |
| AGGTTTGG | -0.181 ± 0.03 |
| ACAAGTCC | -0.00732 ± 0.06 |
| ATCTAGAT | 0.0448 ± 0.016 |
